Measurements taken from PubChem BioAssay AID2060912 (Molecular Pharmacology Branch, DTP, NCI, 2025).
Not every entry of the source has a single result; some have several. The list is limited to them. There may be further records. Values given together repeat one measurement in other runs, samples, wells, individuals or studies. Additions like (4×) stand for listed records that agree.

Test system: HUVEC/MSC spheroids viability
Test: Human HUVEC/MSC cell line growth inhibition [KRAS2];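 for viability, T/C: percent of DMSO vehicle control luminescence so 100% = untreated viability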
Details: for viability, T/C: stronger effect = lower value
Text: Multicellular complex tumor spheroid response to RAS pathway inhibitors in combination with a targeted agents in patient-derived cell lines with oncogenic KRAS variants from multiple cancer types
A high-throughput screen of multi-cell type tumor spheroids was designed to identify active combinations of targeted small molecules and KRAS pathway inhibitors. Complex spheroids include a stromal component modeled by human endothelial cells (HUVEC) and fibroblasts modeled by human mesenchymal stem cells (MSCs). The concentration ranges selected for each drug and investigational agent were based upon clinically achievable concentrations if the clinical Cmax of the agent was known. * [This particular assayID is a followup dataset requested by reviewers of the manuscript. It is a test of the HUVEC and MSC without the tumor cells, and was conducted using different drug plates and a different plate layout.]
Compounds. The drugs and investigational agents: BI-3406 (NSC825286), BAY-293 (NSC824723), batoprotafib (TNO155; NSC825523), sotorasib (AMG 510; NSC818433), MRTX1257 (NSC819558), elimusertib (BAY 1895344; NSC800525), molibresib (GSK525762; NSC774829), temuterkib (LY3214996; NSC803410), venetoclax (NSC766270), alisertib (NSC759677), olaparib (NSC753686), talazoparib (NSC767125), erdafitinib (NSC781556), ipatasertib (NSC767898), cabozantinib (NSC761068), nintedanib (NSC756659), abemaciclib (NSC768073), docetaxel (NSC628503), trametinib (NSC758246), and sapanisertib (NSC764658) were obtained from the National Cancer Institute (NCI) Developmental Therapeutics Program Chemical Repository. The FDA-approved anticancer drug set is available from the Developmental Therapeutics Program. […] The stock solutions were prepared in dimethyl sulfoxide (DMSO, Sigma-Aldrich, St. Louis, MO, cat. D2650) at 800-fold the tested concentration and stored at -70 degrees C prior to their use. All drugs and investigational agents were tested over a range starting from a high concentration at or near the clinical Cmax and decreasing in half-log increments. If the clinical Cmax for an agent had not been determined, the highest concentration tested was 10 microM.
Cell Culture. All cells were maintained in an incubator at 37 degrees C and 5% CO2 with 95% humidity. The PDC lines were cultured according to standard operating procedures established by the NCI PDMR (https://pdmr.cancer.gov/sops/default.htm). Briefly, all PDCs were thawed and cultured in Matrigel-coated flasks prepared with a working solution of 1X Ham's F-12 nutrient mix, without supplementation (Invitrogen, Waltham, MA, cat. 11765054), 100 U/mL penicillin-streptomycin (Invitrogen, cat. 15140122), and 2.5% Matrigel (Corning Inc., Corning, NY, cat. 354248) for the first three passages. All PDCs were cultured in complete DMEM/F-12 media containing advanced DMEM/F-12 (Invitrogen, cat. 12634028), 4.9% defined fetal bovine serum, heat inactivated (HyClone Laboratories Inc., Logan, UT, cat. SH30070.03HI), 389 ng/mL hydrocortisone (Sigma-Aldrich, cat. H4001), 9.7 ng/mL human EGF recombinant protein (Invitrogen, cat. PHG0313), 23.4 microg/mL adenine (Sigma-Aldrich, cat. A2786), 97.3 U/mL penicillin-streptomycin (Invitrogen, cat. 15140122), 1.9 mM L-glutamine (Invitrogen, cat. 25030081), and 9.7 microM Y-27632 dihydrochloride (Tocris Bioscience, Bristol, United Kingdom, cat. 1254). The PDCs were cultured in complete DMEM/F12 media without 9.7 microM Y-27632 dihydrochloride for at least two passages prior to the screen. The established cell line HOP-62 was cultured in RPMI 1640 medium, HEPES (Invitrogen, cat. 22400105) with 10% defined fetal bovine serum (HyClone Laboratories Inc., cat. SH30070.03) and 2 mM L-glutamine (Invitrogen, cat. 25030081). The pooled donor HUVEC were cultured in endothelial cell growth medium 2 (PromoCell, Heidelberg, Germany, cat. C-22011) and the hMSC were cultured in mesenchymal stem cell growth medium 2 (PromoCell, cat. C-28009). […]

O=C(c1cc(Cc2n[nH]c(=O)c3ccccc23)ccc1F)N1CCN(C(=O)C2CC2)CC1
viability, T/C (compound alone 0.0316 µM): 86.9, 89.2, 95.3, 112, 100%
viability, T/C (compound alone 0.1 µM): 111, 87.1, 77.1, 99.3, 87.3%
viability, T/C (compound alone 3.16 µM): 102, 85.7, 86.8, 90.3, 76.8%

CC(C)n1nc(-c2ccc3oc(N)nc3c2)c2c(N)ncnc21
IC50 (compound alone): 6.01, 2.47, 6.36, 2.1, 19.3 nM
viability, T/C (compound alone 0.000316 µM): 70.6, 84.8, 99.7, 89.9, 110%

Cn1ncnc1[C@H]1c2n[nH]c(=O)c3cc(F)cc(c23)N[C@@H]1c1ccc(F)cc1
viability, T/C (compound alone 0.000316 µM): 96.5, 96.1, 92, 106, 76.8%

COc1cc2nc(C)nc(NC(C)c3cc(N)cc(C(F)(F)F)c3)c2cc1OC1CCOC1 (stereo not given)
viability, T/C (compound alone 0.1 µM): 83.3, 98.8, 92.6, 111, 95.3, 97, 95.8, 80.4%
viability, T/C (compound alone 1 µM): 84.1, 103, 99.9, 119, 84.8, 81.9, 76.1, 110, 72.8%
viability, T/C (compound alone 3.16 µM): 92.5, 78.3, 92.7, 102, 72.2, 72.8, 86.8, 95.2, 81.5%

C=CC(=O)N1CCN(c2nc(OCC3CCCN3C)nc3c2CCN(c2cccc4cccc(C)c24)C3)CC1CC#N (stereo not given)
viability, T/C (compound alone 0.00949 µM): 76.2, 86.3, 90, 82.5, 106, 99.9, 81.6, 110, 79.6%
viability, T/C (compound alone 0.0949 µM): 80.3, 87.1, 95.8, 87.6, 109, 89.5, 93.2, 97.6, 88.5%
viability, T/C (compound alone 0.3 µM): 67.1, 84.5, 83.1, 94.8, 92.3, 81, 69.9, 88, 70.5%

CC1COCCN1c1cc(-c2ccnn2C)c2ccnc(-c3ccn[nH]3)c2n1 (stereo not given)
viability, T/C (compound alone 0.00949 µM): 85.6, 79.2, 89.1, 116, 94%

CN(C)C/C=C/C(=O)Nc1cc2c(Nc3ccc(F)c(Cl)c3)ncnc2cc1O[C@H]1CCOC1
viability, T/C (compound alone 0.01 µM): 81.7, 106, 85.5, 91.7, 77.8%
viability, T/C (compound alone 0.1 µM): 87.9, 74.1, 83.6, 103, 97%

C=CC(=O)N1CCN(c2nc(=O)n(-c3c(C)ccnc3C(C)C)c3nc(-c4c(O)cccc4F)c(F)cc23)C(C)C1 (stereo not given)
viability, T/C (compound alone 0.1 µM): 91.5, 87.8, 105, 82, 113, 106, 97.3, 114, 107%
viability, T/C (compound alone 0.316 µM): 108, 96.6, 107, 106, 103, 117, 87.7, 113, 124%
viability, T/C (compound alone 1 µM): 110 (2×), 99.2, 125, 117, 106, 124, 127, 115%
viability, T/C (compound alone 3.16 µM): 121, 127, 143, 108, 94.1, 113, 110 (2×), 119%

CC1OCC2(CCN(c3cnc(Sc4ccnc(N)c4Cl)c(N)n3)CC2)C1N (stereo not given)
viability, T/C (compound alone 0.0316 µM): 91.5, 109, 99.1, 102, 95.3, 107, 92.4, 105, 91.2, 94.7, 115, 123, 92.1, 108%
viability, T/C (compound alone 0.1 µM): 100, 105, 108, 103, 90.4, 94.6, 97.9, 102, 83.9, 90.1, 101, 154, 119, 110%
viability, T/C (compound alone 0.316 µM): 89.5, 131, 117, 102, 104, 110, 112, 115, 99.1, 95.5, 84.7, 114, 107, 103%
viability, T/C (compound alone 1 µM): 83.6, 101, 89.4, 88.5, 103, 98.5, 98.2, 109, 84.9, 89.9, 114, 122, 81.5, 85.5%
viability, T/C (compound alone 3.16 µM): 84.6, 83.6, 89.2, 89.1, 86.2, 84.9, 91.5, 89.8, 87, 83.4, 97.4, 115, 65.4, 76.6%
viability, T/C (compound alone 10 µM): 67, 75.1 (2×), 72.5, 66.1, 78.8, 93.6, 82.2, 66.7, 58.9, 79.3, 122, 62.5, 64%

CCNC(=O)CC1N=C(c2ccc(Cl)cc2)c2cc(OC)ccc2-n2c(C)nnc21 (stereo not given)
viability, T/C (compound alone 0.316 µM): 121, 92.4, 80.9, 97.3, 81.8%
viability, T/C (compound alone 1 µM): 120, 112, 127, 94, 123%
viability, T/C (compound alone 3.16 µM): 134, 94.9, 120, 121, 101%
viability, T/C (compound alone 10 µM): 115, 93.8, 130, 94.1, 105%

CC(=O)Nc1cccc(-n2c(=O)n(C3CC3)c(=O)c3c(Nc4ccc(I)cc4F)n(C)c(=O)c(C)c32)c1
viability, T/C (compound alone 0.0003 µM): 111, 130 (2×), 124, 144%
viability, T/C (compound alone 0.003 µM): 105, 125, 109 (2×), 89%

CNCc1ccccc1-c1csc(C(C)Nc2nc(C)nc3cc(OC)c(OC)cc23)c1 (stereo not given)
viability, T/C (compound alone 0.1 µM): 94.3 (2×), 78.3, 86.8, 76.9, 99.2, 102, 96.1, 91.7%
viability, T/C (compound alone 1 µM): 96, 76.2, 80.5, 68.4, 85.5, 81.3, 84.7, 69.6, 110%
viability, T/C (compound alone 3.16 µM): 97.7, 74.2, 91.6, 73.6, 97.6, 97.5, 89.2, 89.5, 108%

COC(=O)c1ccc2c(C(=Nc3ccc(N(C)C(=O)CN4CCN(C)CC4)cc3)c3ccccc3)c(O)[nH]c2c1
viability, T/C (compound alone 0.0316 µM): 76.7, 99.4, 67.1, 58.4, 90.1%
viability, T/C (compound alone 0.1 µM): 98.8, 94.8, 93.4, 73.4, 85.6%
viability, T/C (compound alone 0.316 µM): 100, 93.2, 82.7, 73.8, 89.5%

COc1cc2nccc(Oc3ccc(NC(=O)C4(C(=O)Nc5ccc(F)cc5)CC4)cc3)c2cc1OC
viability, T/C (compound alone 3.16 µM): 104, 101, 91.8, 84.5, 76.9%

CC(C)NCC(C(=O)N1CCN(c2ncnc3c2C(C)CC3O)CC1)c1ccc(Cl)cc1 (stereo not given)
viability, T/C (compound alone 0.0316 µM): 85.5, 94.3, 82.6, 78.2, 105%
viability, T/C (compound alone 0.1 µM): 92.2, 102, 93.2, 70.5, 87.9%
viability, T/C (compound alone 3.16 µM): 66.6, 70.9, 68.7, 45.5, 51.2%

COc1cc(Nc2ncc3c(n2)-c2ccc(Cl)cc2C(c2c(F)cccc2OC)=NC3)ccc1C(=O)O
viability, T/C (compound alone 0.0316 µM): 94.9, 95, 75.3, 113, 89%

CCN1CCN(Cc2ccc(Nc3ncc(F)c(-c4cc(F)c5nc(C)n(C(C)C)c5c4)n3)nc2)CC1
viability, T/C (compound alone 0.00316 µM): 96.2, 103, 91.6, 76.4, 77.3%
viability, T/C (compound alone 1 µM): 105, 151, 108, 117, 135%

Cn1nccc1Nc1nccc(-c2cc3c(s2)C(C)(C)N(CCN2CCOCC2)C3=O)n1
viability, T/C (compound alone 0.316 µM): 110, 104, 127, 132, 103%
